Measured values reported in PubChem BioAssay AID360 (National Center for Advancing Translational Sciences (NCATS), 2006).
Among all 48,000 compounds or so, about 550 (1.1%) were called active. Roughly 4% stayed inconclusive and do not appear here. No stated cut-off is given here; in the data, active means potency below about 15 µM; inconclusive means mostly about 16 µM to 33 µM; inactive means weaker than that. Some of the results follow.

biological target: Lysosomal acid glucosylceramidase (Homo sapiens) (UniProt P04062); test: Glucocerebrosidase; details: purified enzyme, resorufin glucoside fluorescence (screen aimed at inhibitors), 20 min; series mostly up to 77 µM;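 further: the screen sought inhibitors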
Outline: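 Compounds titrated against 0.2 nM normal enzyme, 30 uM resorufin beta-D-glucopyranoside substrate, citrate/phosphate buffer with taurocholate and tween-20, pH 5.9. Reaction ran 20 min at room temperature; fluorescence (Ex 548/Em 600) gave AC50.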
Potency means the concentration at half of the fitted maximal effect.

Chain of UniProt P04062 (P04062 whole entry, looked up): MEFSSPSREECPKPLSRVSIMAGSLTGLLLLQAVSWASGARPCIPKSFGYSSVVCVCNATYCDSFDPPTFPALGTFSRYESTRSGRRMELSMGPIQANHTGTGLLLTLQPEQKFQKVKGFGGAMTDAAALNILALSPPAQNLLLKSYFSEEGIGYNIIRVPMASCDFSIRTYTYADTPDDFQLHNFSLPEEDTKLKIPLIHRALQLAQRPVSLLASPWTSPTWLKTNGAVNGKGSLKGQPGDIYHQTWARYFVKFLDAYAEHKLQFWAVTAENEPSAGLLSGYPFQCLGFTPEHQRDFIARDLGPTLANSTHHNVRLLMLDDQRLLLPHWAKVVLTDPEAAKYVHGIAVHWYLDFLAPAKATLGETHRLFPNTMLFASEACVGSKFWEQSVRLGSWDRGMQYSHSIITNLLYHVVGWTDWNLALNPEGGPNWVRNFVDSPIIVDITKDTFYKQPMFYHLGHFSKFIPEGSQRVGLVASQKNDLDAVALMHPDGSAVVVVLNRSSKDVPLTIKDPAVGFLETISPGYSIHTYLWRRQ

Potency, inactive:
O=C(/C=N/O)NCC1CCNCC1 > 76.9 µM
Cc1ccc(S(=O)(=O)NC(=O)Nc2ccc(Cl)cn2)cc1 > 76.9 µM
COc1cccc(C(=O)Nc2ccc(C)cc2)c1 > 76.9 µM
Cc1nc(=O)c(-c2ccccc2)c(C)n1-c1ccccc1C(=O)O > 76.9 µM
Cc1cc(C)n2cc(CSC3=NCCS3)nc2n1 > 76.9 µM
O=C(Nc1ccc(Cl)cc1)N(Cc1nnc2n1CCCCC2)c1ccccc1 > 76.9 µM
CCC(=O)N1c2ccc(S(=O)(=O)CCC(=O)NCc3ccc4c(c3)OCO4)cc2CC1C (configuration not stated) > 76.9 µM
O=C(CCS(=O)(=O)Cc1ccccc1)NCC1CCCO1 (configuration not stated) > 76.9 µM
O=C(Cc1ccccc1)Nc1ccc2oc(-c3cccnc3)nc2c1 > 76.9 µM
Cc1nc2ncnn2c(Nc2ccc3c(c2)OCCO3)c1C > 76.9 µM
COc1ccccc1C(c1nnnn1C(C)(C)C)N1CCN(C(=O)c2ccco2)CC1 (configuration not stated) > 76.9 µM
COc1ccc(-c2cc(C(F)(F)F)nc(N3CCN(c4ccccc4)CC3)n2)cc1OC > 76.9 µM
CN(Cc1nc(-c2cccnc2)no1)S(=O)(=O)c1ccccc1 > 76.9 µM
CCc1ccc2oc(=O)cc(CN3CCCCC3C)c2c1 (configuration not stated) > 76.9 µM
CC(=O)c1cc(-c2ccccc2)n(CC(=O)N2CCC(N3CCCCC3)CC2)c1C > 76.9 µM
COC(=O)COc1ccc(S(=O)(=O)NCc2cccnc2)cc1C > 76.9 µM
CC1(C)OC(=O)C(=CNc2ccccc2)C(=O)O1 > 76.9 µM
COCCCN1C(=O)c2ccc(C(=O)NCc3ccco3)cc2C1=O > 76.9 µM
CS(=O)(=O)N(CC(=O)NC1CC1)c1cccc(F)c1 > 76.9 µM
COc1ccccc1-c1cn(S(=O)(=O)c2ccc(C)cc2)nc1N > 76.9 µM
CCS(=O)(=O)N1CCCC(C(=O)NCc2cccnc2)C1 (configuration not stated) > 76.9 µM
CSc1ccn(CCC(=O)O)c(=O)n1 > 76.9 µM
Cn1c(CSc2ncccn2)nnc1SCC(=O)N1CCCCC1 > 76.9 µM
Cc1nnc(SCCn2c(N3CCN(C)CC3)nc3c2c(=O)n(C)c(=O)n3C)s1 > 76.9 µM
Cc1cccc(C)c1NC(=O)C1(N(Cc2ccco2)C(=O)CC2NC(=O)NC2=O)CCCCC1 (configuration not stated) > 76.9 µM
COc1ccc(C2C(C(=O)Nc3cccc(C)n3)c3ccccc3C(=O)N2C)cc1OC (configuration not stated) > 76.9 µM
COc1ccccc1N1CCN(C(=O)C(NS(=O)(=O)c2cccs2)c2ccccc2)CC1 (configuration not stated) > 76.9 µM
CCOC(=O)Nc1cccc(OCC(=O)Nc2ccccc2OC)c1 > 76.9 µM
Cc1nc2ccc(S(=O)(=O)NCC(=O)N3CCCCC3)cc2s1 > 76.9 µM
Nc1ccc(Cl)c(NC(=O)c2cccs2)c1 > 76.9 µM
O=C(OCCN1CCOCC1)C(c1ccccc1)c1ccccc1 > 76.9 µM
COc1ccc(NC(=O)Cn2nnc(-c3ccccc3F)n2)cc1Cl > 76.9 µM
CCOC(=O)c1c(N)sc(C(O)(C(F)(F)F)C(F)(F)F)c1-c1ccc(OC)cc1OC > 76.9 µM
CC1CCN(c2ncccc2C(=O)O)CC1 > 76.9 µM
COC(=O)c1cccc(S(=O)(=O)N2CCC(NC(=O)Nc3cccc(F)c3)CC2)c1 > 76.9 µM
O=C(COc1ccc(CO)cc1)Nc1ccc(F)cc1 > 76.9 µM
COc1ccc(-n2c(SC3CCOC3=O)nc3ccccc3c2=O)cc1OC (configuration not stated) > 76.9 µM
O=C(c1ccc(Cl)s1)N1CCc2ccccc21 > 76.9 µM
CNC(=O)NC(=O)CSc1nc2cc(C(=O)OC)ccc2c(=O)n1-c1ccccc1 > 76.9 µM
Cc1cc(C)n(-c2nc3c(c(=O)[nH]c(=O)n3C)n2CC(O)COc2ccccc2C)n1 (configuration not stated) > 76.9 µM
Cc1ccc(NC(=O)N2CCC(NC(=O)c3ccccc3C)CC2)cc1 > 76.9 µM
O=C(c1ccco1)N1CCN(C(=O)c2cc3c(=O)oc4ccccc4c3s2)CC1 > 76.9 µM
Cc1nn(Cc2ccccc2)c(C)c1NC(=O)c1cc(-c2ccc3c(c2)OCO3)on1 > 76.9 µM
Cn1nc(CC(=O)Nc2cccc3ncccc23)c2ccccc2c1=O > 76.9 µM
CC(=O)Nc1ccc(S(=O)(=O)N(C)CC(=O)Nc2ccccc2N2CCOCC2)cc1 > 76.9 µM
COc1c(F)c(F)c(C(=O)Nc2ccccc2N2CCN(C(C)=O)CC2)c(F)c1F > 76.9 µM
Cc1cc(C)c(OCC(=O)Nc2cccc(O)c2)cc1C
Cc1ccc2c(c1)N(CC(=O)N1CCCc3ccccc31)C(=O)CO2 > 76.9 µM
CC(C)(C)NC(=O)NC(=O)COC(=O)COc1ccc2c(c1)CCC2 > 76.9 µM
CCS(=O)(=O)N1CCC(C(=O)NCCCN2CCN(c3ccccc3F)CC2)CC1 > 76.9 µM
CCOc1ccccc1N(CC(=O)NC1CCCC1)C(=O)CCC(=O)Nc1cc(C)on1 > 76.9 µM
O=C(NC1CCCCC1)N1CCCC(c2nc3ccccc3[nH]2)C1 (configuration not stated) > 76.9 µM
COCCCNC(=O)CC(NS(=O)(=O)c1ccc(Cl)cc1)c1ccco1 (configuration not stated) > 76.9 µM
CCN=C1SC(CC(=O)Nc2ccc(C)cc2)C(=O)N1CC (configuration not stated) > 76.9 µM
Cc1cc(C(=O)CSc2nnnn2-c2ccccc2)c(C)n1CC1CCCO1 (configuration not stated) > 76.9 µM
Cc1cc(=O)n(CC(C)O)c(O)c1C#N (configuration not stated) > 76.9 µM
COC(=O)NCc1ccc(CNC(=O)OC)cc1 > 76.9 µM
Cc1onc(-c2ccccc2Cl)c1C(=O)NCc1nc(-c2ccccc2)no1 > 76.9 µM
CN1C(=O)CSc2ccc(NC(=O)Nc3ccccn3)cc21 > 76.9 µM
Cc1cc(C(F)F)n2nc(C(=O)Nc3cccc(C(F)(F)F)c3)nc2n1 > 76.9 µM
COc1cccc(C(=O)NC2CCN(CC(=O)NCc3ccccc3OC)CC2)c1 > 76.9 µM
Cc1cc(NC(=O)c2cnn3cccnc23)no1 > 76.9 µM
O=C(NCc1cccnc1)c1ccc(Cl)c(Cl)c1 > 76.9 µM
CCS(=O)(=O)Nc1ccc(C(=O)CC2(O)C(=O)Nc3ccc(Br)cc32)cc1 (configuration not stated) > 76.9 µM
CCCOc1ccc(C2C(C(=O)c3ccco3)=C(O)C(=O)N2CCCn2ccnc2)cc1 (configuration not stated) > 76.9 µM
CC(=O)Nc1c(O)nc(SCC(=O)Nc2ccc(C(C)=O)cc2)[nH]c1=O > 76.9 µM
COc1ccc(C(=O)Nc2ccc(Cl)c(Cl)c2)c(OC)n1 > 76.9 µM
CCN(CC)C(=O)Oc1ccc2c(=O)c(-c3ccccc3)coc2c1 > 76.9 µM
Cn1c(=O)[nH]c(=O)c2c1nc(CN1CCN(c3cccc(Cl)c3)CC1)n2CCc1ccccc1 > 76.9 µM
CCOC(=O)CSc1nc(-c2ccc(OC)cc2)ns1 > 76.9 µM
Cc1ccc(CN2C(=O)CCC2C(=O)NCCCN2CCC(C)CC2)cc1 (configuration not stated) > 76.9 µM
CCOc1ccc(C(=O)N2CCN(C(=O)c3ccco3)CC2)cc1OCC > 76.9 µM
Cn1c(=O)c2c(nc(Oc3ccc4c(c3)OCO4)n2Cc2ccc(Cl)cc2)n(C)c1=O > 76.9 µM
COc1ccc(OC(C)C(=O)N2CCOCC2)cc1 (configuration not stated) > 76.9 µM
CS(=O)(=O)N(CCc1ccccc1)CC(=O)NCc1ccco1 > 76.9 µM
COC(=O)[C@H](C)NC(=O)Nc1ccccc1C(F)(F)F > 76.9 µM
N#CCC(=O)N1CCCCCC1 > 76.9 µM
COc1ccccc1NC(=O)Oc1ccc(NC(=O)c2ccco2)cc1 > 76.9 µM
CC12CCC(C(=O)NCc3ccc4c(c3)OCO4)(CC1=O)C2(C)C (configuration not stated) > 76.9 µM
CCOc1ccc2nc(N3CCCCCC3)sc2c1 > 76.9 µM
CN1C(=O)N(C)C2(c3ccccc3)N(C)C(=O)NC12c1ccccc1 (configuration not stated) > 76.9 µM
CC(=O)c1ccc(N2CCN(C(=O)c3ccco3)C(C)C2)c(F)c1 (configuration not stated) > 76.9 µM
CCn1c(SCC(=O)c2cccs2)nnc1-c1cccs1 > 76.9 µM
CC(=O)c1n[nH]nc1NC(=O)c1ccccc1 > 76.9 µM
Cc1n[nH]c(C)c1S(=O)(=O)NCCc1ccc(Cl)cc1 > 76.9 µM
COc1ccc(Br)cc1C1NC(=O)c2c(sc3c2CCN(C)C3)N1 (configuration not stated) > 76.9 µM
Cc1cc(-c2nnc3n2N=C(C(C)(C)C)CS3)n[nH]1 > 76.9 µM
CCOC(=O)N1CCN(S(=O)(=O)c2ccc3c(c2)SCC(=O)N3)CC1 > 76.9 µM
COc1ccc(NS(=O)(=O)Cc2ccccc2Cl)cn1 > 76.9 µM
Cc1nonc1NC(=O)OC1CCCCC1 > 76.9 µM
N#Cc1c(N)oc(-c2cccs2)c1-c1cccs1 > 76.9 µM
Cc1ccccc1CN1C(=O)C2(OCCCO2)c2ccccc21 > 76.9 µM
